The campaign covered roughly 310,000 compounds. About 14,000 (4.5%) showed an effect of 50% or more. The effect is printed as a negative number. Some of the results follow.
target: human ether-à-go-go-related gene (hERG) potassium channel (human, UniProt Q12809); experiment: primary screen, population patch clamp on CHO cells stably expressing hERG
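Further: peak tail current of the secondary pulse compared with the same well before compound.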

Sequence of human ether-à-go-go-related gene (hERG) potassium channel (Q12809 whole entry, looked up): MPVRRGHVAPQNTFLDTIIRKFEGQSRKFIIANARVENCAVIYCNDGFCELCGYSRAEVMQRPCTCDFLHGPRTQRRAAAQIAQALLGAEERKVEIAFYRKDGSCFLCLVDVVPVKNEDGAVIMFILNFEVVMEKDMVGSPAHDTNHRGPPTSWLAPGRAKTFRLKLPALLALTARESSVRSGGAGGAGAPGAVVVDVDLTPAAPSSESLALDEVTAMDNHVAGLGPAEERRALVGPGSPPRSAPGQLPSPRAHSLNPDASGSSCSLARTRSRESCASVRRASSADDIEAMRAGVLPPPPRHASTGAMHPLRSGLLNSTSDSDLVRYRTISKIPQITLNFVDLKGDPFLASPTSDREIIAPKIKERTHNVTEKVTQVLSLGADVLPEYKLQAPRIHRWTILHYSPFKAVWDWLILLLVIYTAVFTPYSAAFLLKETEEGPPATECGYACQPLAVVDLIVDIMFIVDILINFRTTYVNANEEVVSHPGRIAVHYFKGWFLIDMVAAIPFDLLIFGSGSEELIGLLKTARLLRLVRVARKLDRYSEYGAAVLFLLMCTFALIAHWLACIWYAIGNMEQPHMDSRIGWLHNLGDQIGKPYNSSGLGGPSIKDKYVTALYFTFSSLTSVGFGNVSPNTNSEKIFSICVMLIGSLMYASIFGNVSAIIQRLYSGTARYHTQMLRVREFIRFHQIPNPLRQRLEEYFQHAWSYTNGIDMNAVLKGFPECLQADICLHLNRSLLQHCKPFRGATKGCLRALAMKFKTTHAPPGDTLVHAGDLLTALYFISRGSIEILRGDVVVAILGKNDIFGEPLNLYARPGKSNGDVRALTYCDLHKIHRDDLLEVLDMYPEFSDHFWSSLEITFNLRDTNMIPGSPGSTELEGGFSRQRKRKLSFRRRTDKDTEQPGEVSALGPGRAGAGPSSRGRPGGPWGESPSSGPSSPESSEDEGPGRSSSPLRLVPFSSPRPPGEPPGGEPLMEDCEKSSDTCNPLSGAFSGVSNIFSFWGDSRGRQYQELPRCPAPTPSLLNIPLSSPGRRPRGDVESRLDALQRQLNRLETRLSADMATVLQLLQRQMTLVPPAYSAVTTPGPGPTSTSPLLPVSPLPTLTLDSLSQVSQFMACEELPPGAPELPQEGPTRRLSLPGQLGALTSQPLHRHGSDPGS

| SMILES | hERG current change (%, negative = inhibition) at 10uM |
| --- | --- |
| CN(C)S(=O)(=O)c1ccc(Cl)c(C(=O)Nc2cccc([N+](=O)[O-])c2)c1 | -16% |
| CCOC(=O)c1cc2c(=O)n3ccccc3nc2n(Cc2ccco2)c1=NC(=O)c1cccnc1 | -37.4% |
| CC(=O)c1cccc(NC(=O)N2C3CCCC2CC(NC(=O)C2CC2)C3)c1 (stereo not drawn) | 17.2% |
| COc1cc(C(=O)N(C)CC(=O)Nc2cccc(F)c2)ccc1OCc1ccccc1 | -12.6% |
| C=CCOC(=O)c1cn(CC)c2nc(C)ccc2c1=O | -5.77% |
| CC(C)(C)N(CC#CCC(O)(c1ccccc1)C1CCCC1)CCO (stereo not drawn) | -1.14% |
| CCc1cc(C(c2ccc(F)cc2)N2CCOCC2)c(NC(=O)c2ccccc2)s1 (stereo not drawn) | 2.1% |
| C=CCn1c(SCc2ccc(C(=O)NCCO)cc2)nc2ccccc2c1=O | -12.8% |
| Nc1cc(=O)[nH]c(=O)n1CC1CC1 | 22% |
| C=CCn1c(N)c(C(=O)NCC2CCCO2)sc1=S (stereo not drawn) | 1.39% |
| COc1ccc(CC(=O)N2CCN(c3ccccn3)CC2)cc1OC | 8.9% |
| CN1CCN(C(=O)CSc2ccc(C(F)(F)F)cc2[N+](=O)[O-])CC1 | -10.2% |
| Cc1ccc(S(=O)(=O)N(CC(=O)Nc2cccnc2)c2cccc([N+](=O)[O-])c2)cc1 | -56.6% |
| Cn1cc(/C=N/NC(=O)c2ccc(C#N)cc2F)c2ccccc21 | 7.36% |
| COc1ccccc1NS(=O)(=O)c1cccc(C(=O)N/N=C/c2ccc(N3CCOCC3)cc2)c1 | -8.32% |
| CCN1CCN(CCCN(Cc2ccco2)C(=S)Nc2ccc(Cl)cc2)CC1 | -64.2% |
| COc1ccc(-c2noc(C3CCCN(C(=O)c4cccc(C)c4)C3)n2)cc1 (stereo not drawn) | 5.57% |
| COc1cc(Cl)c(C)cc1NC(=O)c1cccc(OC)c1OC | 3.22% |
| O=C(COC(=O)CNC(=O)c1ccccc1)Nc1ccc(Cl)cc1C(F)(F)F | -3.91% |
| COc1ccc(C#Cc2c(-c3ccsc3)oc3ccc(N4CCOCC4)cc23)cc1 | 7.27% |
| COc1cccc(NC(=O)Cc2ccc3ccccc3c2)c1 | -7.16% |
| COC(=O)Cc1ccc(NC(=O)c2ccc(NC(=O)c3ccco3)cc2)cc1 | 16.7% |

| SMILES | hERG current change (%, negative = inhibition) at 10uM |
| --- | --- |
| Fc1ccc(-c2[nH]ncc2-c2nnnn2-c2ccccc2)c(F)c1 | -10.6% |
| OCC1(Cc2ccccc2)CCCN(Cc2cn[nH]c2-c2ccccc2)C1 (stereo not drawn) | -16.4% |
| COc1cccc(CN2CCNC(=O)C2CC(=O)N(C)C2CCCCC2)c1 (stereo not drawn) | -7.2% |
| Cc1cc(CN(C)C(=O)C2CCC(=O)N(CCc3cccc(F)c3)C2)on1 (stereo not drawn) | 9.94% |
| Cc1ccc2c(CC(=O)Nc3sccc3C(N)=O)coc2c1 | -0.97% |
| COc1ccc(CNC(=O)c2c(F)c(F)c(F)c(F)c2F)cc1 | -22.3% |
| COC(=O)c1cn(NC(=O)c2cccc(N(C)C)c2)c(=O)c2ccccc12 | 12.9% |
| Cc1cc(O)c2c(c1)C(O)(C1OC(CO)C(O)C(O)C1O)c1cccc(O)c1C2=O (stereo not drawn) | 8.22% |
| CN1/C(=C\C=[N+](C)c2ccccc2)C(C)(C)c2ccccc21.[I-] | -38.8% |
| CCCCN(C(=O)c1[nH]c(C)c(C(=O)OCC)c1C)c1c(N)n(CCCC)c(=O)[nH]c1=O | -13.7% |
| CC(C)(C)OC(=O)N1CCC(NC(=O)c2nc[nH]c2C(=O)NCc2ccccc2)CC1 | 4.1% |
| COc1ccc(/C=C/C(=O)O)cc1O | 14.2% |
| O=C1C2=C(CCCC2)C(=O)N1c1cccc(OCCBr)c1 | 9.89% |
| CCOc1cc(NC2CS(=O)(=O)CC2O)c(OCC)cc1NC(=O)c1ccccc1 (stereo not drawn) | 5.95% |
| O=S1(=O)CCOC[C@H](CC2CCCCC2)N1Cc1cccc(Cl)c1 | -13.6% |
| CCCCc1ccc(NC(=O)CSc2nc(=O)n3cc(C)ccc3n2)cc1 | 7.42% |
| Cc1ccc(S(=O)(=O)N(CC(=O)N2CCN(c3ccccc3F)CC2)C2CCCCC2)cc1 | -5.01% |
| COc1cccc(C(=O)CSc2nnc(COc3cccc4cccnc34)o2)c1 | 3.73% |
| COc1ccc(Cc2nnc(Nc3ccccc3)s2)cc1Br | 13.9% |
| c1cncc(-c2nnc(SCc3cccc4ccccc34)o2)c1 | -31.8% |
| CCCCn1c(SCC(=O)Nc2cccc(C)n2)nnc1-c1ccco1 | -76% |
| CC(=O)c1cnc(Nc2cccc(C)c2)s1 | 20.5% |

| SMILES | hERG current change (%, negative = inhibition) at 10uM |
| --- | --- |
| O=C1CC(c2ccccc2)c2ccc(O)cc2O1 (stereo not drawn) | 11.7% |
| Cc1cc(/C=C2/SC(=S)N(c3cccc(Cl)c3)C2=O)c(C)n1-c1cccnc1 | -0.0371% |
| COc1ccc(C(O)(c2ccccc2OC)C(CN2CCOCC2)c2ccccc2)cc1.Cl (stereo not drawn) | -18.2% |
| CCOc1ccc(-n2nnc3c(=O)n(CC(=O)c4ccccc4)cnc32)cc1 | -1.37% |
| Cc1ccccc1OCC(=O)Nc1nnc(C2CC2)s1 | 4.5% |
| COC(=O)c1sccc1NC(=O)Nc1ccc(F)cc1F | 7.71% |
| O=C(N/N=C/c1cc([N+](=O)[O-])ccc1O)C12CC3CC(CC(C3)C1)C2 | 8.39% |
| O=C(NC1CCCCC1)c1ccc(COc2ccccc2)o1 | 2.32% |
| CCc1nc2ccccc2c(=O)n1/N=C/c1ccc(Cl)cc1 | -8.59% |
| COC(=O)C1C2C=CC(C3CC23)C1C(=O)OCC(=O)c1ccc(OC)cc1 (stereo not drawn) | 1.88% |
| COc1cc(C(=O)NCC(=O)NC(C)c2ccc(-n3ccnc3)cc2)cc(OC)c1OC (stereo not drawn) | -3.06% |
| COc1ccc(C2/C(=C(\O)c3ccc4c(c3)OCCO4)C(=O)C(=O)N2CCCn2ccnc2)cc1 (stereo not drawn) | 8% |
| CNC(=O)c1c(NC(NC(=O)c2ccco2)C(=O)c2ccc(Cl)cc2)sc2c1CCCC2 (stereo not drawn) | -20.3% |
| CCOC(=O)N1CCN(c2nc(-c3ccc(Cl)cc3)cs2)CC1 | -8.2% |
| CN(C)C(=O)c1ccc(NC(=O)CN2C(=O)NC3(CCCc4ccccc43)C2=O)cc1 (stereo not drawn) | 9.2% |
| COc1ccc(CCN(C)C(=O)c2cc(=O)c3ccccc3o2)cc1OC | 7.6% |
| CN(CCCNC(=O)c1cccn2c(=O)c3ccccc3nc12)Cc1ccccc1 | -74.1% |
| COc1ccc(-c2cc(C(=O)NCCN3CCOCC3)c3ccccc3n2)cc1 | -24.7% |
| C/C(=N\N1CCN(c2ccc(Cl)cc2)CC1)c1ccco1 | -6.54% |
| COc1ccc(C2CC(=O)NC3=C2C(=O)CCC3)cc1Cl (stereo not drawn) | 1.44% |
| COc1cc2oc(=O)ccc2c(OC)c1CC(O)C(C)(C)O (stereo not drawn) | 8.15% |
| NS(=O)(=O)c1cccc(NC(=O)COC(=O)Cc2ccc(Cl)cc2)c1 | -3% |

| SMILES | hERG current change (%, negative = inhibition) at 10uM |
| --- | --- |
| Cc1cc(NC(=O)c2ccc([N+](=O)[O-])cc2)n(CCC#N)n1 | 11% |
| Cn1c(=O)c2c(SCc3cccnc3)nc(CC(C)(C)C)nc2n(C)c1=O | -59.6% |
| COc1cc(CNC2CCCCCCC2)cc(Br)c1OCC#N.Cl | -22.4% |
| C/C(=N\NC(=O)CNc1ccc(F)cc1)c1cc2ccccc2o1 | -26.6% |
| COc1ccc(NC(=O)CCCCC#Cc2ccccc2)cc1 | 4.46% |
| Cc1cc(Cl)ccc1OCC(=O)Nn1c(C)ccc1C | 3.73% |
| CCN(CC(=O)Nc1ccc(OC)cc1)C(=O)c1ccc(NS(=O)(=O)c2ccc(C(C)=O)cc2)cc1 | 12.8% |
| CC1O[C@@H](O[C@H](C)CC[C@@H](C)O[C@H]2OC(C)[C@@H](O)C[C@H]2O)C(O)C[C@H]1O (stereo partly drawn) | 19.5% |
| COc1cc(C(=O)Nc2ccc(-c3nc4cc(C)ccc4o3)c(O)c2)cc(OC)c1OC | 16% |
| O=C(C1=C[C@@H](c2coc3ccccc3c2=O)C[C@@H](OCCCCO)O1)N1CCN(Cc2ccccc2)CC1 | -57.9% |
| O=S(=O)(Nc1ccc(Cl)cn1)c1cnc(Cl)c(Br)c1 | -4.3% |
| Cc1nnc(SCc2nnc(-c3ccccc3)o2)n(N)c1=O | 2.01% |
| Cc1cccc(N(CC(=O)N/N=C/c2ccc(C(=O)O)cc2)S(=O)(=O)c2ccccc2)c1C | 0.123% |
| N#C/C(=C\c1ccccc1)C(=O)Nc1nncs1 | 10.4% |
| COc1ccc(/C=N/N2C(=N)SCC2=O)cc1 | 10.1% |
| Cc1c(C)n(Cc2ccccc2)c2ncnc(Cl)c12 | 8.96% |
| Cn1c(SCC(=O)c2ccc(-c3ccccc3)cc2)nnc1-c1ccco1 | -13.3% |
| O=C1c2ccncc2C(=O)N1CNc1ccc(Cl)cc1 | 16.5% |
| CC(C)(C)c1ccc2c(c1)N(CC(=O)O)C(=O)CO2 | -48.8% |
| O=C(CSc1nnc(-c2ccccc2F)n1C1CCCCC1)N1CCCC1 | -13.1% |
| COc1ccc(NS(=O)(=O)c2ccc3c(c2)CCN3C(=O)CCC(=O)O)cc1OC | 5.37% |

From PMC4336329 (PLoS ONE, 2015)
